Test results from PubChem BioAssay AID488969 (Vanderbilt High Throughput Screening Facility, 2010).
The full ranking holds about 110,000 compounds; the median of “z-score” is about -0.1, and the highest 2% start at about 2. This is one part of the list.

target: Metabotropic glutamate receptor 8 (Rattus norvegicus) (UniProt P70579); assay: mGluR8 Gi/Go-coupled signaling modulation – cell-based, rat, thallium flux, HTS, primary screen (AID 488969); conditions: HEK293 rat mGluR8, GIRK (G protein-gated inwardly rectifying potassium channel) thallium flux, FluoZin2; at 10 µM; stronger effect = higher value; submaximal glutamate (EC20) added with thallium
Chain of UniProt P70579 (P70579 whole entry, looked up): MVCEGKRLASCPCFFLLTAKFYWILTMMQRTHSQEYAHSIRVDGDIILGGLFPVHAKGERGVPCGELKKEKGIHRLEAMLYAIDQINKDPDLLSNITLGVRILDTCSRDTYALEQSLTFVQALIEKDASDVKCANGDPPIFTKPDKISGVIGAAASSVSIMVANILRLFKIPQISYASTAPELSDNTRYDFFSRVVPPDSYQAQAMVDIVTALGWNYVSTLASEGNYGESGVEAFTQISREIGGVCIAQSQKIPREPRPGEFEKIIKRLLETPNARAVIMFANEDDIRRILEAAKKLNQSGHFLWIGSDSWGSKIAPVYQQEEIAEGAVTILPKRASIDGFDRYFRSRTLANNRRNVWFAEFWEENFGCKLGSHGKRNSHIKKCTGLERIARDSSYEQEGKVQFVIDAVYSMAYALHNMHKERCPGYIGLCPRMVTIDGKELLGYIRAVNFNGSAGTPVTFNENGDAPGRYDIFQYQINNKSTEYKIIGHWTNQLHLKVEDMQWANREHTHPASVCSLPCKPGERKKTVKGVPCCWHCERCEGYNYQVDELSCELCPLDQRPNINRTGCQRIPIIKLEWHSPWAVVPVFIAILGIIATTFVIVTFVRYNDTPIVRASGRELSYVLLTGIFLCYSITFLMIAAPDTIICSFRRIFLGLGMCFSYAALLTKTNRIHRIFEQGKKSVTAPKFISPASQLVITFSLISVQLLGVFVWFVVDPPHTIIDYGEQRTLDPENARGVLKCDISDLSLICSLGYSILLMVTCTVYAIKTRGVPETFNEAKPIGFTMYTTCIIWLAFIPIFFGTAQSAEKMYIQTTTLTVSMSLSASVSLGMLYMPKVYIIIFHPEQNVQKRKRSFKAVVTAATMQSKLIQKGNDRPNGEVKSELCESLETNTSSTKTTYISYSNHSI

Row | SMILES | z-score
1 | Cc1nn(-c2ccccc2)c(C)c1/C=N/NC(=O)CSc1nnc(-c2ccccc2)n1-c1ccc(Cl)cc1 | 0.0544
2 | CCn1c(=O)c(C(=O)NNS(=O)(=O)c2ccc(Cl)cc2)c(O)c2ccccc21 | 0.416
3 | Cc1ccc(Cl)c2c1NC(=O)C2(O)CC(=O)c1ccccc1O (centres undefined) | -0.23
4 | C=CCCCCCCCCC(=O)NNC1=CC(=O)CC(C)(C)C1 | 0.774
5 | O=c1[nH]c(Cc2ccccc2)nc2scc(-c3ccccc3)c12 | -0.165
6 | O=[n+]1c2c(n([O-])c3ccccc31)CCC2 | -0.449
7 | CC(C)(C)C(=O)NC1CCN(S(=O)(=O)c2ccc(C(F)(F)F)cc2)CC1 | 0.039
8 | CCOC(=O)c1c(NC(=S)NC(=O)/C=C/c2cccs2)sc(C)c1C | -0.183
9 | Cc1cnc(N)c2c(=O)oc3ccccc3c12 | -0.0227
10 | CC(Oc1ncnc2ccccc12)C(=O)Nc1cccc(S(=O)(=O)N2CCOCC2)c1 (centres undefined) | -0.0441
11 | COCC(=O)NCc1ccc2c(c1)OCO2 | 1.71
12 | COc1cc(Nc2ccccc2Cl)c([N+](=O)[O-])nc1[N+](=O)[O-] | -0.191
13 | CC(C)OC(=O)CSc1nnc(Cc2ccccc2)n1Cc1ccco1 | -0.4
14 | Cc1ccc(NC(=O)Cn2cnc3sc(C(=O)NCCN(C)C)c(C)c3c2=O)cc1Cl | -0.225
15 | Cc1ccc(-c2cc(NC(=O)CCl)n(-c3ccccc3)n2)cc1 | 0.695
16 | NC(=O)NOCc1ncc(C(F)(F)F)cc1Cl | 0.153
17 | COc1ccc(OC)c(N(CC(=O)N2CCc3ccccc3C2)S(C)(=O)=O)c1 | -0.145
18 | CCOC(=O)c1c(/N=C/c2cccc(C)c2O)sc2c1CCN(C)C2 | -0.105
19 | COC(=O)c1ccccc1NC(=O)CSc1nc2ccccc2c(=O)[nH]1 | -0.159
20 | COC(=O)C1=C(C)NC(=O)NC1c1ccsc1 (centres undefined) | -0.413
21 | O=C(Nc1ccc(N2CCN(C(=O)c3ccccc3)CC2)cc1)c1ccc2c(c1)OCO2 | 0.351
22 | CN1CCN(CCC(=O)Nc2ccc3c(c2)OCO3)CC1 | 0.213
23 | CN(CC(=O)Nc1ccccc1Cl)C(=O)COC(=O)CNC(=O)c1ccc(Br)o1 | 0.0164

Row | SMILES | z-score
24 | Cc1ccc(NS(=O)(=O)c2ccc(NC(=O)c3cccc(NC(=O)C(C)C)c3)cc2)cc1 | -0.312
25 | O=C(Nc1ccccc1)c1nnn(Cc2ccccc2)c1NC(=O)C(F)(F)F | -0.0815
26 | Nn1c(SCCOc2ccccc2)nnc1-c1cccnc1 | 0.653
27 | CC(C)CNC(=O)c1cccc(NC(=O)CSc2ccccc2)c1 | -0.745
28 | O=C(Nc1ccc(N2CCN(C(=O)c3ccco3)CC2)cc1)c1cccc(F)c1 | 0.81
29 | O=C(Cc1ccccc1F)Nc1ccc(Cl)nc1 | 0.217
30 | Cc1cc(N(C(=O)c2ccco2)C(C(=O)NC2CCCCC2)c2ccccc2)ccc1-n1cnnn1 (centres undefined) | -0.0693
31 | COc1cccc(-n2nnnc2SCC(=O)Nc2cccc(C)n2)c1 | -0.175
32 | O=C(NCc1ccc(Cl)cc1)c1ccc(OCC2CCCO2)cc1 (centres undefined) | 1.72
33 | Cc1cccc(NC(=S)NNC(=O)c2ccccc2Br)c1 | 0.847
34 | CC1Cc2ccccc2N1C(=O)CSc1nnc(-c2ccccc2)c(-c2ccccc2)n1 (centres undefined) | -0.141
35 | COc1ccccc1N1CCN(C(c2ccc(Cl)cc2)c2nnnn2C(C)(C)C)CC1 (centres undefined) | -0.375
36 | Cc1ccc2nc(NC(=O)c3cccc(-c4cc5ccccc5oc4=O)c3)sc2c1 | -0.18
37 | CC(=O)N1CCN(C2=NC(=O)C(=C3CCCCC3)S2)CC1 | 0.29
38 | COC(=O)Nc1ccc(S(=O)(=O)N(CCO)CCO)cc1 | 0.562
39 | CC(=O)N1CCN(Cc2nc3cc(NS(C)(=O)=O)ccc3n2C)CC1 | -0.158
40 | Cc1nc(SCC(=O)Nc2ccccc2)c2oc3ccccc3c2n1 | 0.0589
41 | Cn1c(SCC(=O)Nc2ccc(N3CCOCC3)cc2)nnc1-c1ccccc1 | 0.0728
42 | COc1cc(S(=O)(=O)Nc2ccc(C)cc2)ccc1NC(=O)c1ccncc1 | 0.0477
43 | COc1cc(N=CC2=C(O)c3ccccc3C2=O)cc(OC)c1 | -0.168
44 | CCCCNC(=O)c1onc(CSc2ccccc2F)c1C(=O)O | -0.281
45 | O=[N+]([O-])c1ccccc1Oc1ccccc1Cl | -0.0419
46 | CCOC(=O)c1c(C)[nH]c(C(=O)CSc2ccc(Cl)cc2)c1C | 0.24

Row | SMILES | z-score
47 | CC(C)CCNC(=O)NC(=O)Cn1cc(C(F)(F)F)ccc1=O | -0.327
48 | CC(C)CN1C(=S)SC(C)(C)C1n1oc(=O)n(-c2ccccc2)c1=O (centres undefined) | -0.0885
49 | COc1ccc(S(=O)(=O)N2CCc3ccccc3C2)cc1OC | -0.577
50 | COc1ccc(NC(=O)Cc2c(O)c3ccccc3[nH]c2=O)cc1 | -0.337
51 | CCNC(=O)OCC12CC3CC(CC(C3)C1)C2 | -0.0256
52 | O=C(O)CCN1C(=O)c2ccccc2C1=O | 0.398
53 | COc1cc(C(=S)N2CCCC2)cc(OC)c1O | 0.304
54 | Clc1ccc(OCCn2cnc3ccccc32)cc1 | -0.548
55 | COc1ccccc1C(=O)Nc1nc(-c2cccs2)c(NC(C)=O)s1 | -0.217
56 | CCN1CCS/C1=C/C=C/C1=[N+](CC)CCS1 | -0.00185
57 | CCN(CC)C(=O)CSc1nnc(NC(=O)CCc2ccccc2)s1 | -0.515
58 | CCCc1cc(C(=O)Nc2cccnc2)no1 | -0.469
59 | O=C(NCc1ccco1)/C(=C/c1ccco1)NC(=O)c1ccc(Br)o1 | -0.14
60 | O=C(Nc1ccccc1-c1ccccc1)NC1CCN(C(=O)N2CCOCC2)CC1 | 0.316
61 | CC(=O)c1ccc(N2CCN(C(=O)C3(S(=O)(=O)c4ccc(Cl)cc4)CC3)CC2)cc1 | -0.122
62 | Cc1cc(Br)cn2ccnc12 | 0.171
63 | CCOC(=O)c1ccc(CSc2nnc(-c3ccncc3)n2N)cc1 | -0.062
64 | COC(=O)C1=CNC=C(C(=O)OC)C1c1ccccc1Cl | -1.54
65 | Cc1nc(C)c(C(=O)N/N=C/c2cn(C)c3ccccc23)s1 | 0.0943
66 | CCCCCCC(=O)c1c(C)[nH]c(C(=O)OCC)c1C | 0.027
67 | O=C(CN1CCN(CC(=O)Nc2ccccc2C(F)(F)F)CC1)Nc1ccccc1F | -0.47
68 | CC(=O)c1cc2c(cc1NC(=O)CN1CCC(Cc3ccccc3)CC1)OCO2 | -0.516
69 | O=C(Nc1ccccc1)NC1(C(=O)NCCCN2CCOCC2)CCCCC1 | 0.117

Row | SMILES | z-score
70 | Cc1cccc(NC(=S)NCCN2CCOCC2)c1C | -0.235
71 | O=C(COC(=O)c1cccs1)c1ccc2c(c1)OCCO2 | -0.579
72 | CC(=O)C1=C(O)C(=O)N(Cc2ccco2)C1c1ccc(F)cc1 (centres undefined) | -1.8
73 | O=c1c(Cl)c(Cl)cnn1-c1ccccc1 | -0.878
74 | O=C(c1ccco1)N1CCn2c1nc1ccccc12 | 0.111
75 | COc1ccc(C)cc1NC(=O)C(Sc1nnc(-c2cccs2)o1)c1ccccc1 (centres undefined) | 0.187
76 | O=C(O)CCc1ccc(-c2ccc(F)cc2)n1NC(=O)c1ccco1 | 0.168
77 | CCCc1c(O)c2ccccc2[nH]c1=O | 0.116
78 | O=C(OCc1ccccc1F)c1ccc2c(c1)OCCO2 | -0.955
79 | Cc1[nH]nc(N=CC2=C(O)CC(C)(C)CC2=O)c1-c1ccc(Cl)cc1 | 0.222
80 | O=C(c1cnn2c(C(F)F)cc(-c3ccccc3)nc12)N1CCCc2ccccc21 | -0.367
81 | COc1ccccc1NCCC(=O)OCC(=O)NC1CCCCCC1 | 0.0591
82 | Cc1ccn(C(=O)c2cc3c(C)nn(-c4ccccc4)c3s2)n1 | -0.42
83 | CCN(CC)C(=O)CSc1nc2ncc(Br)cc2[nH]1 | -0.274
84 | O=C(Nc1cccc(O)c1)c1noc2c1CCc1ccccc1-2 | -0.219
85 | COc1cc(NC(=S)NCCCN2CCOCC2)cc(OC)c1 | -0.0511
86 | C1CSC2(N1)C1CC3CC(C1)CC2C3 (centres undefined) | -0.916
87 | Cc1ccc2nc(N(CCCN(C)C)C(=O)c3ccc4c(c3)CCCC4)sc2c1 | -1.29
88 | O=C(NCc1cccc(Cl)c1)c1ccc(S(=O)(=O)Nc2cccc(C(F)(F)F)c2)cc1 | 0.186
89 | COc1ccc(S(=O)(=O)N2CCCC(C(=O)NCc3ccccn3)C2)cc1Cl (centres undefined) | 0.0643
90 | COc1ccc(NC(=O)CCNC(=O)Cn2cnc3ccccc3c2=O)c(OC)c1 | -0.512
91 | CCOC(=O)COn1c(SCC(=O)OCC)nc2ccccc2c1=O | 0.143
92 | CNC(=O)CCC(=O)Nc1ccc(C(=O)OC)cc1 | -0.196

Row | SMILES | z-score
93 | N=C1C(=O)OCC1c1cc(Cl)ccc1NC(=O)Nc1ccccc1 (centres undefined) | 0.0546
94 | O=C(Cn1nc(Cc2cccnc2)c2ccccc2c1=O)N1CCN(C(=O)c2ccco2)CC1 | -0.426
95 | CC(/C=N/NC(=O)c1ccncc1)=C\c1ccc(C(C)C)cc1 | -0.0873
96 | O=C(COC(=O)c1cccs1)c1ccccc1 | 0.738
97 | Cc1ccc(/C=N/NC(=O)c2ccccn2)s1 | 0.342
98 | CCOc1ccc2nc(NC(=O)CN3CCN(C)CC3)sc2c1 | 0.433
99 | CC(C)(C)NC(=O)c1cc(NC(=O)c2ccco2)cc(NC(=O)c2ccco2)c1 | 1.64
100 | Cc1c(C(=O)N(C)C)sc2nc(-c3ccccn3)[nH]c(=O)c12 | -0.0644
101 | CC1CCCC(NC(=O)Cn2cc3c(n2)CCCCC3)C1C (centres undefined) | 0.237
102 | O=C(C[n+]1cc(-c2ccc(F)cc2)n2c1CCC2)Nc1nc(-c2ccccc2)cs1 | -0.217
103 | CCCOc1cccc(C2/C(=C(/O)c3ccccc3)C(=O)C(=O)N2CCN(C)C)c1 (centres undefined) | 0.738
104 | COC(=O)C1=C(C)NC(=O)NC1c1cc(Cl)ccc1OC (centres undefined) | -0.227
105 | CCC1CCCCN1C(=O)C1CC(c2cc(Cl)c(OC)cc2OC)=NO1 (centres undefined) | -0.518
106 | COc1ccccc1-c1nc2n(n1)C(c1ccccc1Cl)C(C(N)=O)=C(C)N2 (centres undefined) | -0.224
107 | Cc1cccc(/C(N)=N/OC(=O)CCCN2C(=O)c3ccccc3C2=O)c1 | -0.0566
108 | CN(C)c1nc(N)nc(CSc2nnnn2-c2ccc(F)cc2)n1 | 0.047
109 | CN(C)c1nc(Nc2ccccc2)nc(Oc2ccc(=O)[nH]n2)n1 | -0.00591
110 | Cc1nc2ccccn2c1P(=Nc1ccccc1)(N(C)C)N(C)C | 0.266
111 | O=C(OC1CCN(c2ccc([N+](=O)[O-])cc2)CC1)c1ccccc1 | -0.193
112 | O=C(CSc1nnc(-c2ccncc2)o1)Nc1ccccc1Cl | 1.13
113 | Cc1cc(=O)oc2cc(Nc3ccccc3)ccc12 | -0.0811
114 | N#Cc1ccc(COC(=O)c2ccc3c(=O)[nH]c(CN4CCOCC4)nc3c2)cc1 | 0.508
